Source: the supplement of paper PMC7826260
This is one part of the list. Each Rep nickase domain was tested in vitro on the same pool of single strands (3 µM enzyme, 1 h, 37 °C); shown is the middle of each 90-letter strand. Values are log2 of uncut reads against the no-enzyme pool; strong cutting gives strongly negative numbers. There is no active / inactive call. The scaling is to total reads; uncut strands gain when others are lost, and binding without cutting may add a little.

Assays:
Assay in all cases: uncleaved DNA left, log2 of reads against the no-enzyme library (log2 ratio); higher = less cleavage (more negative = more Rep cleavage of the k-mer); sequences stand for … in CTCGTCCG…ACCGGAGA
[1] = test system: T1, Rep nickase domain of Muscovy duck circovirus
T1 sequence (residues 1-111 of Rep, tag left off): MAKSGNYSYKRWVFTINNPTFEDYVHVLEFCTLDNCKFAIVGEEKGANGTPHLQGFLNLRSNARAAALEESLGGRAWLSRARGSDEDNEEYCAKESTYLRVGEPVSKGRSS
Description: (§1)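 A pool of 90-nt single-stranded DNAs with seven random bases just before the constant AC of the nick site (name = the seven bases) was cut by 3 µM recombinant His6-SUMO-tagged Rep nickase domain (300 nM DNA, 50 mM HEPES pH 8.0, 50 mM NaCl, 1 mM MnCl2, 1 h, 37 °C, three replicates). Uncut DNA was amplified and sequenced.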

[2] = test system: T2, Rep nickase domain of banana bunchy top virus
T2 sequence (residues 1-94 of Rep, tag left off): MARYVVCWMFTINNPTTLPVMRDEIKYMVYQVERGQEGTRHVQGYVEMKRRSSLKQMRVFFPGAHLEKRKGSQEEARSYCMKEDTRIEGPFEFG
Description: as §1

[3] = test system: T3, Rep nickase domain of cabbage leaf curl virus
T3 sequence (residues 1-116 of Rep, tag left off): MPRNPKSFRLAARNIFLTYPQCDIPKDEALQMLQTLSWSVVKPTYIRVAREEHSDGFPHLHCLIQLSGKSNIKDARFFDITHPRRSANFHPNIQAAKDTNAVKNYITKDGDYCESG
Description: as §1

[4] = test system: T4, Rep nickase domain of chickpea chlorotic dwarf virus
T4 sequence (residues 1-124 of Rep, tag left off): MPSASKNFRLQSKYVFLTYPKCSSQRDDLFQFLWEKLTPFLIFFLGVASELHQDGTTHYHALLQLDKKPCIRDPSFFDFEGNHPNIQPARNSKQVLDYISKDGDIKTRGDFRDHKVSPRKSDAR
Description: as §1

[5] = test system: T5, Rep nickase domain of faba bean necrotic yellows virus
T5 sequence (residues 1-98 of Rep, tag left off): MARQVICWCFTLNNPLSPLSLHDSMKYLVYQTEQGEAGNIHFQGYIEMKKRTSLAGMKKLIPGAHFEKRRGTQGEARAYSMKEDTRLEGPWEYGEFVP
Description: as §1

[6] = test system: T6, Rep nickase domain of maize striate mosaic virus
T6 sequence (residues 1-117 of Rep, tag left off): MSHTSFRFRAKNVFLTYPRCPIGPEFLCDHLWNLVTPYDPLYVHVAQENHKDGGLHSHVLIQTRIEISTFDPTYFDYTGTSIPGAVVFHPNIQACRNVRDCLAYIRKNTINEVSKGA
Description: as §1

[7] = test system: T7, Rep nickase domain of porcine circovirus 2
T7 sequence (residues 2-116 of Rep, tag left off): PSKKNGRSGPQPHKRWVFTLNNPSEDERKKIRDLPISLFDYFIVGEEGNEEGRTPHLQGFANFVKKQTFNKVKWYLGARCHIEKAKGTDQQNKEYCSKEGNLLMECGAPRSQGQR
Description: as §1

[8] = test system: T8, Rep nickase domain of tomato golden mosaic virus
T8 sequence (residues 1-124 of Rep, tag left off): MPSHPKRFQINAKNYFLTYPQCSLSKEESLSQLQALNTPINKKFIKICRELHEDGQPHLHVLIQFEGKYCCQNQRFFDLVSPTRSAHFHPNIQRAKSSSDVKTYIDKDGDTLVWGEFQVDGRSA
Description: as §1

[9] = test system: T9, Rep nickase domain of tomato yellow leaf curl virus
T9 sequence (residues 1-136 of Rep, tag left off): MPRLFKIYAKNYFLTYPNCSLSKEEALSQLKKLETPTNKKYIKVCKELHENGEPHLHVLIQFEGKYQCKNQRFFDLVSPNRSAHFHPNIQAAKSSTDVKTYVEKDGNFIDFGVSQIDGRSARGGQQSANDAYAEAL
Description: as §1

[10] = test system: T10, Rep nickase domain of wheat dwarf virus
T10 sequence (residues 1-137 of Rep, tag left off): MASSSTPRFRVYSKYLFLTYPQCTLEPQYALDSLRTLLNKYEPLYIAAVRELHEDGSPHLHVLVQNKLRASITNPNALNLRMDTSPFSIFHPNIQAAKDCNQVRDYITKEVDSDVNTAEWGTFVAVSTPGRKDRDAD
Description: as §1

| Sequence | uncleaved DNA left (log2) [1] | uncleaved DNA left (log2) [2] | uncleaved DNA left (log2) [3] | uncleaved DNA left (log2) [4] | uncleaved DNA left (log2) [5] | uncleaved DNA left (log2) [6] | uncleaved DNA left (log2) [7] | uncleaved DNA left (log2) [8] | uncleaved DNA left (log2) [9] | uncleaved DNA left (log2) [10] |
| --- | --- | --- | --- | --- | --- | --- | --- | --- | --- | --- |
| TTGCAGT | -0.137 | -0.0872 | -0.884 | -0.523 | 0.0307 | -1.18 | 0.028 | 0.0126 | -0.0328 | -0.0908 |
| TACTAGG | -0.0109 | 0.0767 | 0.386 | 1.06 | 0.0414 | 1.19 | 0.0259 | 0.125 | -0.0983 | 0.014 |
| TGACGAG | 0.0105 | -0.0176 | 0.356 | 0.416 | 0.00236 | 0.246 | 0.0763 | -0.033 | -0.104 | 0.0516 |
| AATAGCA | 0.0391 | 0.029 | -0.485 | -1.43 | 0.1 | -1.13 | -0.0912 | -0.0683 | 0.0731 | 0.0212 |
| GTCAGGA | 0.0748 | 0.0607 | 0.356 | 0.741 | 0.00436 | 0.567 | 0.128 | 0.125 | 0.11 | 0.0186 |
| TCCCAAG | 0.00306 | 0.029 | -0.712 | -0.742 | 0.041 | -1.34 | 0.136 | 0.0262 | 0.165 | -0.0658 |
| CTTGATA | 0.00657 | -0.0716 | 0.0232 | -1.17 | 0.148 | -0.488 | 0.0438 | 0.154 | 0.0349 | 0.129 |
| GGGTCTA | 0.1 | 0.0761 | 0.841 | 1.97 | 0.0332 | 2.28 | 0.222 | 0.117 | 0.11 | 0.262 |
| GTTTACC | -0.0697 | -0.00255 | 0.369 | 1.07 | -0.0267 | 1.72 | -0.0905 | 0.0866 | -0.057 | -0.0254 |
| AGTCTTG | 0.142 | 0.185 | -0.0557 | -1.79 | 0.16 | 0.153 | 0.00576 | 0.176 | 0.0714 | 0.0587 |
| GACGCGT | 0.056 | -0.0661 | -0.731 | -0.72 | -0.1 | -0.716 | -0.0168 | -0.0215 | -0.13 | -0.183 |
| CAACCTT | -0.0497 | -0.0703 | -1.72 | -2.67 | 0.0307 | -0.834 | -1.56 | -0.368 | 0.0493 | -0.373 |
| CCACCGC | -0.0314 | -0.0644 | -0.509 | -0.861 | -0.149 | -0.756 | -0.00371 | -0.144 | -0.192 | -0.228 |
| TTCGCGT | 0.012 | -0.0412 | -0.736 | -0.406 | -0.0621 | -0.993 | 0.104 | -0.0769 | 0.0626 | -0.0474 |
| GCTGATC | -0.0146 | -0.0958 | 0.126 | 0.528 | -0.089 | 0.863 | 0.0883 | -0.00612 | -0.0527 | -0.0693 |
| TCGAGTC | 0.0211 | 0.117 | 0.161 | 0.127 | 0.18 | -0.353 | -0.0385 | -0.0304 | 0.072 | 0.0107 |
| GCGCATA | -0.0343 | -0.0343 | 0.0177 | 0.419 | -0.0439 | 0.345 | -0.153 | -0.0987 | -0.0257 | -0.1 |
| AACGGAT | 0.226 | 0.103 | 0.251 | 1.74 | 0.186 | 1.98 | 0.284 | 0.277 | -0.0886 | 0.122 |
| CGCTAAC | 0.081 | -0.09 | -0.287 | -1.1 | 0.0762 | -0.496 | 0.0229 | 0.0261 | 0.00595 | 0.145 |
| CATCGGG | -0.00168 | 0.0449 | -0.426 | -0.37 | -0.148 | -1.12 | 0.123 | -0.0585 | -0.0188 | -0.169 |
| GGCAAAT | -0.0656 | 0.0904 | 0.726 | 1.69 | -0.0532 | 2.08 | 0.121 | -0.0335 | 0.046 | 0.16 |
| CCCAATT | -0.0227 | 0.0189 | -0.199 | -2.14 | 0.058 | -0.838 | -0.327 | -0.00737 | 0.0148 | -0.104 |
| TGGACCG | 0.15 | 0.16 | -0.294 | -0.143 | 0.168 | -0.545 | 0.3 | 0.185 | 0.134 | 0.196 |
| GCAGACT | 0.0464 | 0.101 | 0.21 | 0.297 | 0.0937 | 1.31 | 0.118 | 0.148 | -0.0412 | 0.0571 |
| CTCTTCC | -0.0632 | 0.0119 | 0.0851 | -0.356 | 0.0765 | -0.49 | 0.0118 | -0.0803 | -0.211 | -0.0383 |
| GTTCGGG | 0.042 | -0.082 | 0.214 | 0.547 | -0.0381 | 0.25 | -0.035 | -0.012 | 0.048 | -0.0607 |
| CTAAACA | -0.174 | 0.0746 | -0.0764 | -2.26 | -0.0821 | -0.66 | -0.114 | 0.00555 | 0.124 | 0.0842 |
| CCGCTGT | -0.0198 | 0.101 | 0.536 | 1.8 | 0.0782 | 1.7 | 0.059 | 0.165 | -0.0305 | -0.064 |
| TAAGGGA | 0.0779 | 0.102 | 0.28 | 0.83 | 0.058 | 0.963 | 0.0867 | 0.166 | -0.0732 | 0.0565 |
| CCAAAAT | -0.0369 | 0.0445 | -0.0662 | -0.619 | -0.0481 | -0.574 | -0.0296 | 0.131 | -0.0536 | 0.0772 |
